# Laboratory results published in paper PMC4336329 (PLoS ONE, 2015).
# Screen size: about 310,000 compounds; about 2,200 (0.71%) showed an effect of 50% or more. Effects have a minus sign here. The list shows a part of the results.
# Target: human ether-à-go-go-related gene (hERG) potassium channel (human, UniProt Q12809)
# Assay: primary screen, population patch clamp on CHO cells stably expressing hERG
# human ether-à-go-go-related gene (hERG) potassium channel, sequence (Q12809 whole entry, looked up): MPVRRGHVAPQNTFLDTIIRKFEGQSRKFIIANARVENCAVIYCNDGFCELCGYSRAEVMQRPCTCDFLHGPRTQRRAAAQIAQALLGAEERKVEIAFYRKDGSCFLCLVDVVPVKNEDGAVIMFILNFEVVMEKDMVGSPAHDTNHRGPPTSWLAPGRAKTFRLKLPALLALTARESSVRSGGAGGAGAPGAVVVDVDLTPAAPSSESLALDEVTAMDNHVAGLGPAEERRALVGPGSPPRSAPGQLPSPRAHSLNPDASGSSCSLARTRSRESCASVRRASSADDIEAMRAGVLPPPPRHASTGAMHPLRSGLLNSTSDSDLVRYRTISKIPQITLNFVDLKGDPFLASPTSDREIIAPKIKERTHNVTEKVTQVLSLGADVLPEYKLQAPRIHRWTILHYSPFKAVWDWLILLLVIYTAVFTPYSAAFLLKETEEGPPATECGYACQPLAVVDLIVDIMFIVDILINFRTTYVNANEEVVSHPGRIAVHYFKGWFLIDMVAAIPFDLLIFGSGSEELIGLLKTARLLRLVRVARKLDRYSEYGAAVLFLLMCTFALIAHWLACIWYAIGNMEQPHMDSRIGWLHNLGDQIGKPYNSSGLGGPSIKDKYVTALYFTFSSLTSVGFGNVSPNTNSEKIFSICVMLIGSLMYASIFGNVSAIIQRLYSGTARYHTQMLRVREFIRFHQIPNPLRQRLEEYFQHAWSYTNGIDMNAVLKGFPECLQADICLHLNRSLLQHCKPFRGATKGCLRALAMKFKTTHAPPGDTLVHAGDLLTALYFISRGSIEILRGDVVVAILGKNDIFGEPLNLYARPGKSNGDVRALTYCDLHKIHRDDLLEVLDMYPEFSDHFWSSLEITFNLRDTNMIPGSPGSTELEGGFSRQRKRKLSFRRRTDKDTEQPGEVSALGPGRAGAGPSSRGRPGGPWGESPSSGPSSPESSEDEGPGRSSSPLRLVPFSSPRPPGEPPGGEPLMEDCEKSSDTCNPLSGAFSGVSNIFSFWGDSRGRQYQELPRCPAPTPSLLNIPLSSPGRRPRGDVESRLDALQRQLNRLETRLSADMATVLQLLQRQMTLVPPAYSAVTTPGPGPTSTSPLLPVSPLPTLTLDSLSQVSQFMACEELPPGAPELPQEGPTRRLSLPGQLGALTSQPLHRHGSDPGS
row,SMILES,"hERG current change (%, negative = inhibition) at 1uM [%]"
1,Cc1ccc(C)c(N2N=C(C(=O)O)CCC2=O)c1,4.02
2,COc1cc(O)c(C(CCN2CCCC2)c2ccc(N(C)C)cc2)c(OC)c1 (centres unmarked),5.8
3,COCC1CCCCN1C(=O)C1CCN(c2nc(-c3ccccc3)nc3c2CCC3)CC1 (centres unmarked),6.13
4,CC1Cc2cc(S(=O)(=O)NCCC(=O)NCc3ccc(F)cc3)ccc2N1C(=O)C1CC1 (centres unmarked),7.18
5,CC(C)NCCCCOc1ccc(Br)cc1Cl.O=C(O)C(=O)O,-16.1
6,COc1ccc(N(CN2C(=O)c3ccccc3C2=O)C(=O)COc2ccc(Cl)cc2Cl)cc1,19.7
7,CC(C)CN(C(=O)CCc1ccccc1Cl)c1c(N)n(Cc2ccccc2)c(=O)[nH]c1=O,4.48
8,CCNC(=S)N(CCN(C)C)Cc1cc2cc3c(cc2[nH]c1=O)OCO3,11.7
9,O/N=C/c1cc(Br)ccc1OCc1cccc(F)c1,7.33
10,Cc1cccc(NC(=O)Nc2ccccc2[N+](=O)[O-])n1,10
11,COc1cc(/C=N/NC(=O)C2=NNC(=O)C2C)ccc1O (centres unmarked),5.74
12,CCOc1ccccc1N(CC(=O)NC1CCCC1)S(=O)(=O)c1ccc(C)cc1,-1.59
13,O=C(COc1coc(CN2CCN(c3ccc(F)cc3)CC2)cc1=O)Nc1ccccc1,10.6
14,CS(=O)(=O)N(CC(=O)N1CCCCCC1)Cc1ccc(Cl)cc1,5.17
15,CCCCCP(=O)(O)c1ccccc1,9.45
16,Cc1n[nH]c(=S)n1-c1ccc(Cl)cc1,12.3
17,CC(=O)c1cccc(NC(=S)NC(=O)c2ccc(Br)cc2)c1,6.93
18,Cc1cc(C)c(S(=O)(=O)N2CCN(C(=O)c3cc(=O)[nH]c4ccccc34)CC2)c(C)c1,-14.6
19,O=C(CCCN1C(=O)/C(=C/c2cccs2)SC1=S)NNC(=O)c1cccnc1,14.9
20,O=C(CCN1CCCCC1)NNC(=S)NC(=O)c1ccc(Br)cc1,6.71
21,Cc1nn(C)c(C)c1C1Nc2ccccc2C(=O)N1O (centres unmarked),9.61
22,O=C(NCCC1=CCCCC1)C1CCCN(S(=O)(=O)c2ccccc2)C1 (centres unmarked),7.8
23,Cc1nc(N)sc1C(=O)Nc1ccccc1.Cl,10.1

row,SMILES,"hERG current change (%, negative = inhibition) at 1uM [%]"
1,COc1ccc(NC(=O)CSc2nc3ccccc3c(=O)n2-c2ccc3c(c2)OCO3)c(OC)c1,14.3
2,Cc1cccc(-c2nnnn2-c2cccc(C)c2)c1,5.74
3,CCCCOc1ccc(C(=O)NC(=S)Nc2ccc(CN3CCOCC3)cc2)cc1,2.01
4,O=C(C1Cc2ccccc2CN1S(=O)(=O)c1ccc(F)cc1)N1CCOCC1 (centres unmarked),0.885
5,CCCCc1nc(C(N)=O)c2[nH]c(=O)n(-c3ccc(OC)c(OC)c3)c2n1,5.64
6,Cc1ccccc1C(=O)Nc1cccc(N)c1,9.77
7,CCOC(=O)C1(C)NC(c2ccc(OC)cc2OC)C2C(=O)N(c3cccc(OC)c3)C(=O)C21 (centres unmarked),13.8
8,CCOC(=O)N1CCN(C(=O)c2ccc(CS(=O)(=O)c3c(Cl)cccc3Cl)o2)CC1,-2.28
9,CC1(C)CC(=O)C2=C(C1)OC1OC(=O)CC21C (centres unmarked),10.8
10,O=c1cc(Nc2cccc(Br)c2)[nH]c(=O)[nH]1,10.1
11,COc1ccc(C(=O)OCc2c(-c3cccc(OC)c3)ncc3ccccc23)cc1,12.1
12,CCN1CCN(CC(O)COc2ccc3c(C)cc(=O)oc3c2)CC1.Cl (centres unmarked),7.75
13,COc1ccc(-n2nc([N+](=O)[O-])c(=NCCc3ccc(C)cc3)n2O)cc1,1.78
14,O=C(NCc1ccccn1)Nc1ccccc1Cl,12.8
15,CCOC(=O)c1ccc(NC(=S)N(CCCN2CCCC(C)C2)Cc2cccs2)cc1 (centres unmarked),-5.72
16,CCCCCCOc1ccc(CN2CCN(CC)CC2)cc1,-10.3
17,Nc1nnc(CC(=O)N/N=C/c2cc([N+](=O)[O-])cc(Br)c2O)s1,3.19
18,Cc1nonc1CC(=O)N1CCCC(C(=O)c2cccc(C(F)(F)F)c2)C1 (centres unmarked),-20.6
19,S=C(Nc1cc(Cl)cc(Cl)c1)N1CCCC1,7.89
20,N#C/C(=C\c1ccc(N2CCOCC2)c([N+](=O)[O-])c1)c1nc2ccccc2[nH]1,-19.7
21,O=C(c1ccco1)[C@@H]1[C@@H]2C(=O)N(c3ccccc3)C(=O)[C@@H]2C2c3ccccc3C=CN21 (some centres unmarked),8.19
22,CC(=O)NC(C(=O)N1CCC(c2nc3ccccc3s2)CC1)C(C)C (centres unmarked),8.96
23,COc1ccccc1NNC(=O)C(O)(c1ccccc1OC)c1ccccc1OC,15.9

row,SMILES,"hERG current change (%, negative = inhibition) at 1uM [%]"
1,CCN(CC(=O)Nc1c(F)cccc1F)C(=O)c1cccc(-n2cccc2)c1,-8.02
2,O=C(CSc1ccc(C(F)(F)F)cc1[N+](=O)[O-])N1CCOCC1,8.86
3,COCCN(C(=O)c1cc(Cl)nc2ccccc12)c1c(N)n(Cc2ccccc2)c(=O)[nH]c1=O,10.8
4,CC(C)(C)c1ccc(C(=O)Nn2cnnc2)cc1,17
5,CCCCNC(=S)Nc1ccc([N+](=O)[O-])cc1,10.4
6,CCC1CCCCN1CCN1C(=O)C2C(C(=O)Nc3ccc(OC)cc3)C3C=CC2(O3)C1C(=O)NC1CCCCC1 (centres unmarked),10.6
7,CCn1ncc(CN2CCN(Cc3cccc(OC)c3)C(CCO)C2)c1C (centres unmarked),6.94
8,CN=C1SC(CC(=O)Nc2ccc(F)cc2F)C(=O)N1/N=C(\C)c1cccc(OCC(=O)O)c1 (centres unmarked),8.03
9,Cc1cc(C)nc(N/N=C/c2sccc2C)n1,7.82
10,COc1ccc(/C=N/NC(=O)C[n+]2ccccc2)c(OC)c1.[Cl-],7.85
11,CC1CCC(NC(=O)C2c3ccccc3C(=O)N2Cc2cccs2)CC1 (centres unmarked),9.72
12,CN(CCOc1ccccc1)C(=O)c1ccc(F)c(S(=O)(=O)N2CCOCC2)c1,9.03
13,CCOc1cc(N2CCOCC2)c(OCC)cc1NC(=O)c1ccc(OCc2c(C)noc2C)c(OC)c1,15.1
14,CCc1c(O)nc(SC2CC(=O)N(c3ccc(F)c(Cl)c3)C2=O)[nH]c1=O (centres unmarked),10.5
15,CC1CCCCC1NC(=O)COC(=O)COc1ccc(Cl)cc1 (centres unmarked),-1.93
16,O=[N+]([O-])c1ccc(-n2nnnc2-c2ccccc2)c([N+](=O)[O-])c1,15.2
17,CCCCC(=O)Nc1cccc(-c2nn3c(C)nnc3s2)c1,-1.23
18,CN(C(=O)COC(=O)Cc1c(Cl)cccc1Cl)C1CCS(=O)(=O)C1 (centres unmarked),4.6
19,CC1CN(C(=O)c2ccncc2)CC(C)O1 (centres unmarked),8.91
20,CC(=O)N1CCN(C(=O)CCc2nc3ccccc3c(=O)[nH]2)CC1,6.24
21,O=S(=O)(c1ccccc1Cl)N1CCCC1c1nc(-c2cccc(Cl)c2)no1 (centres unmarked),-0.117
22,Cc1cccc2c1N(CC(=O)OC(C)C)C(=O)C2=O,13.1
23,O=C(O)c1ccccc1N(Cc1ccccc1)C(=O)CO/N=C/c1ccccc1,3.94

row,SMILES,"hERG current change (%, negative = inhibition) at 1uM [%]"
1,COc1ccc(CNC(=O)/C(C)=C\C(=O)O)cc1,10.7
2,O=C(Nc1nc2c(Br)cc(Br)cc2c(=O)s1)C1CCC1,11
3,Cc1cccc(OCC(=O)NCCNC(=O)c2ccccn2)c1,23.9
4,Cc1cc(/C=C2\SC(=O)N(C)C2=O)c(C)n1-c1ccc(S(N)(=O)=O)cc1,14.9
5,Cc1ccc(S(=O)(=O)NC(=O)N2CCCC(C)(C)C2)cc1,9.36
6,O=C(CN1CC=C(c2ccccc2)CC1)NC(=O)NC1CCCCC1,5.7
7,Cc1ccc(NC(=O)c2nc[nH]c2C(=O)N[C@@H](CCCCNC(=O)OC(C)(C)C)C(=O)OC(C)(C)C)cc1,5.01
8,O=C(NCc1ccco1)c1ccc(COc2ccc(Cl)cc2)cc1,-0.588
9,CN(C)S(=O)(=O)c1ccc(C(=O)Nc2ccccc2F)cc1,4.74
10,COc1ccc(NC(=O)N2CCCC2C(=O)NCc2ccccc2Cl)cc1 (centres unmarked),10.8
11,COc1ccc(/C=N/Nc2nc3ccccc3[nH]2)c(OC)c1OC,15.1
12,Cc1ccc(C(=O)NCC(=O)Nc2ccccc2C(F)(F)F)cc1,7.76
13,COc1ccc(NC(=O)CCN2CCN(C/C=C/c3ccccc3)CC2)cc1,-37.8
14,CCOc1ccc(/C=N/Nc2nc(N3CCCC3)nc(N3CCCC3)n2)cc1OC,6.01
15,CCCCNC(=O)c1cc(-c2ccc(F)cc2)on1,-13.6
16,COc1ccc(N(CC(=O)NCc2ccc(F)cc2)S(=O)(=O)c2c(C)n[nH]c2C)cc1,5.8
17,CCOc1ccc(NC(=O)CN2CCN(CC(=O)Nc3ccc(C(=O)OC)cc3)CC2)cc1,-48
18,CCSc1nnc(NC(=O)c2ccc(C)cc2)s1,10.3
19,O=C(CCSc1ccccn1)c1ccccc1,8.49
20,CCOC(=O)CNC(=O)CSc1nc(-c2ccc(C)cc2)ns1,10.4
